Variants at the background level are over-represented here.
B1: TPR 5TU (parent)
chain: GGAUCUUCUCGAUCUAACAAAAAAGACAAAUCUGCCACAAAGCUUGAGAGCAUCUUCGGAUGCAGAGGCGGCAGCCUUCGGUGGCGCGAUAGCGCCAACGUUCUCAACUAUGACACGCAAAACGCGUGCUCCGUUGAAUGGAGUUUAUCAUG

Variants of: B1
Experiment: polymerase ribozyme fitness, log enrichment relative to wild type (log ratio); higher = more active; in vitro selection for triplet polymerase activity
Method in brief: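 Input and output libraries were sequenced on Illumina after a single in vitro selection round, run in triplicate on PCR-built, transcribed mutant libraries of each subunit of a heterodimeric triplet polymerase ribozyme. Selection annealed libraries to a biotinylated primer, the partner subunit and triplets, incubated them frozen at −7 °C, then gel-excised extended constructs for streptavidin-bead capture and RT-PCR. Genotypes with ≥10 input reads and ≥1 read per output were kept. Fitness is the logarithm, taken in base 2, of genotype enrichment divided by wild-type enrichment, using inverse-variance-weighted replicate averages.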

Variant | polymerase ribozyme fitness (log ratio)
C36U U53G U55C G58A G88A C99G | ≤ -4.2
C36A A119G | ≤ -4.2
C36A G117U U148C | ≤ -4.2
C35G U53G A64C C79G U109A A115U G128C A142G | ≤ -4.2
A37C A52U C132U | -4.13
C36U U55A A110U | ≤ -4.2
C35U C125A U134C | -0.129
C35U A41C U56A C76U G88U C105U | ≤ -4.2
A37C C76U G88C C103A U104G | ≤ -4.2
C36U C57A C93U C114G A121G | ≤ -4.2
A37C C51U G58C C95G C118A | -3.66
C35U A37C A47G G67U G126A | ≤ -4.2
A37C A52G U82C C85G C95U C105U A142C A150G | ≤ -4.2
C36A A47U G83C C123U C131A | ≤ -4.2
C35U A39G G84C A106G A120U G152A | ≤ -4.2
C36G G62C G86C C95G | ≤ -4.2
C35G G88A C95U U101A G141C | -4.12
C36A G133C U144G | ≤ -4.2
C36U U53A A119G | -1.17
C36G G46C C57U A64G C87A | ≤ -4.2
C36U G50A C95G C118U G133A | ≤ -4.2

Variant | polymerase ribozyme fitness (log ratio)
A37C G58C C93U A119G A137C U145A | ≤ -4.2
A37C C69G G70A C116A | -3.56
C35U U56G U134A | -2.9
C36A A47G A66G C85A G94U A138U | ≤ -4.2
C35U G88C C103U | ≤ -4.2
A37C C87G G88C A89U C125G U144C U151G | ≤ -4.2
C36U G58U C76U C85U A121U U135C | ≤ -4.2
C36G A52G U104G A106G C123G U127G | ≤ -4.2
C35U A52G | -0.53
C35U A40C C54A U90C C105A | ≤ -4.2
C36U G84C U134A | ≤ -4.2
C36A U77G G81C G92U A115U G136C | ≤ -4.2
C35G C76U G92A C123G A137U | ≤ -4.2
C35G G62A G74A C79U C95A A120U C125U | ≤ -4.2
C36A C108G G124U G141U | ≤ -4.2
C35U A47G U82A U101C C114U A115G | ≤ -4.2
C35U U55G G81C G83C C93G | ≤ -4.2
C36G G88U C95G G141U U148C | ≤ -4.2
C36G G59A A113U | ≤ -4.2
A37C C54G G92U A97U A119U | ≤ -4.2
A37C C57A A97C C108A | ≤ -4.2

Variant | polymerase ribozyme fitness (log ratio)
C35U C36G G70C U82A G83A C85U U90G C93A U135C | ≤ -4.2
C35U G81U G83C G143U U146C A150G | ≤ -4.2
C36A A97U U101C U139A | ≤ -4.2
A37C G48A U56A C76A A91G C96U C103U U127G G133C U151G | ≤ -4.2
A37C G42U G84U G94C A97U C114U G140C | ≤ -4.2
A37C A41U G48U A73U C93G C99U G140A | ≤ -4.2
C36A G84U U102A C103U U127C | ≤ -4.2
C36G A89G A91U A98G C132U | ≤ -4.2
C35U G50C C108A | ≤ -4.2
C36U C93A G117U | -3.25
C35U U90G A119U U127A C132U G143U A147C | ≤ -4.2
C36U A41C A47C C85U C93U C99A A110U A138U C149A | ≤ -4.2
C35U U56G A66C A106G G117A U134A | ≤ -4.2
C35U A49U U56A G59C A91U | ≤ -4.2
C35G U45G G80U C85U A97U A107G | ≤ -4.2
C35U U44G C85U C116G C123A | -3.89
C35U U82C | 0.243
C35U U53A U55A C57G G70A G84A C93A | ≤ -4.2
C36A U55A A106G C118A C132U | ≤ -4.2
C35G U55A G74A A89U A115C | ≤ -4.2
C35U U146C | 0.279

Variant | polymerase ribozyme fitness (log ratio)
C35U C57G U130G C132G | ≤ -4.2
C35U G50A A66C G67A | ≤ -4.2
C36A U45A A73U C96G | ≤ -4.2
C36U G42C U53A G59A U78A C87U | ≤ -4.2
A37C C57G C76G A98G A138C G140U | -3.42
C35U G42C C76A C93A G117C | ≤ -4.2
C36U A47U G58U U82A G88U G140C | ≤ -4.2
A37C A52C C54A C87U U145A | ≤ -4.2
C36U A60C A89G U102A A120G | ≤ -4.2
C36A C95U A97U G124U | ≤ -4.2
C36G C95A | -3.65
C36U A89U U90G | ≤ -4.2
C36A C57A G92A C131A | ≤ -4.2
C35G U53A | ≤ -4.2
C35U U44A G50A C54A G68C U90A A120C U144C | ≤ -4.2
A37C C108G | ≤ -4.2
C35U C95G G100U G143C | ≤ -4.2
C35G U56G U148C | ≤ -4.2
C36A A39C U55G A73U C93G A147C | ≤ -4.2
C35G C95A C96U C132G A138C | ≤ -4.2
